Among all 48,000 compounds or so, about 120 (0.25%) were called active. Inconclusive results (about 4%) are left out. Calls come from the whole dose curve; as a rule, active = well fitted activation curve with a large enough effect; inconclusive = small, poorly fitted or top-dose-only effect, or another doubt; inactive = no such curve, though single readings can be large or run the other way. This is one part of the list.

The nature of this assay: Primary qHTS for Identification of Small Molecule Activators of Huntingtin-Antisense Promoter Activity. Note: nearly all actives have a fitted effect of over 55% in size. Conditions: HEK293 HTT-AS promoter firefly luciferase reporter (activity 0% = vehicle and -100% = no light), 24 h; series mostly up to 57.5 µM; activity change, positive = activation: at the top concentration. The essentials: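 Firefly luciferase signal from promoter-reporter HEK293 cells was scaled between vehicle (0%) and zero RLU (-100%). Compounds were tested at final concentrations of up to 57.5 uM over 24 h at 37 degrees C. PTC124 at 50 uM final served as control inhibitor.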
Turning to `CCCCCCCCCCCC1=C(O)C(=O)C=C(O)C1=O`, the “activity change, positive = activation” value was inactive: -26.2%.

For the molecule `COc1cccc(NC(=O)CN(C)S(=O)(=O)c2cccs2)c1`, the “activity change, positive = activation” value is inactive: 16.8%.

With `CC(C(=O)NCc1ccccc1)N1Cc2ccccc2C1=O` (stereo not given), the “activity change, positive = activation” value was inactive: 4.93%.

Consider `CC1CCN(C(=O)CSc2nc(-c3ccc(C(C)C)cc3)no2)CC1`, for which the “activity change, positive = activation” value was inactive: 5.87%.

Consider `O=C(Nc1ccc([N+](=O)[O-])cc1)Nc1ccc([N+](=O)[O-])cc1`, for which the “activity change, positive = activation” value was inactive: -4.07%.

On to `CCCS(=O)(=O)N1CC(=O)N(c2ccccc2F)C(C)(C(=O)NC2CCCCCC2)C1` (stereo not given), for which the “activity change, positive = activation” value was inactive: -7%.

With `Cc1ccc(C(=O)Nc2ccc3c(c2)N(C)C(=O)c2ccccc2S3)cc1`, the “activity change, positive = activation” value was inactive: -47.4%.

Regarding `CCc1ccc(NC(=O)c2cc(S(=O)(=O)N3CCCC3)ccc2F)cc1`, the “activity change, positive = activation” value is inactive: -14.9%.

For `COc1ccc(CCNC(=O)c2cc(C)nc3c2c(C)nn3-c2ccccc2)cc1OC`, the “activity change, positive = activation” value was inactive: -14.3%.

In the case of `Cc1cccc(-n2ncc(C(=O)N3CCc4ccccc4C3)c2C2CCN(C(=O)OC(C)(C)C)CC2)c1`, the “activity change, positive = activation” value is inactive: -1.84%.

As to `Cc1oc2ccc(O)c(CN3CCCCCC3)c2c1C(=O)Nc1cccc(Cl)c1C`, the “activity change, positive = activation” value is inactive: -37.9%.

Consider `Cc1nn2c(=O)cc(COC(=O)c3cccc(NC(=O)COc4ccc(C)c(C)c4)c3)nc2s1`, for which the “activity change, positive = activation” value was inactive: 3.65%.

Regarding `N#Cc1c[nH]n2c(NC3CCCCC3)c(-c3ccccc3F)nc12`, the “activity change, positive = activation” value is inactive: -6.33%.

With `CCSc1ncc(Cl)c(C(=O)N(Cc2ccccc2Cl)C2CCS(=O)(=O)C2)n1` (stereo not given), the “activity change, positive = activation” value is inactive: 3.64%.

`O=C(C1CCN(S(=O)(=O)c2cccs2)CC1)N1CCN(c2cccc(Cl)c2)CC1`: the “activity change, positive = activation” value was inactive: -17.3%.

On to `CCN(CC)CCCNC(=O)c1ccc2c(c1)N(Cc1c(F)cccc1Cl)C(=O)c1ccccc1S2`, for which the “activity change, positive = activation” value was inactive: -48.4%.

Turning to `CSc1ncc2c(n1)-c1ccccc1N(Cc1ccc(F)cc1)S2(=O)=O`, the “activity change, positive = activation” value was inactive: 19.4%.

Consider `O=C(NCCc1ccc(Cl)cc1)C(=O)NCC(c1ccco1)S(=O)(=O)c1cccs1` (stereo not given), for which the “activity change, positive = activation” value is inactive: -12.9%.

With `Cc1ccc(OCCSc2nc3ccc(NC(=O)c4ccc5c(c4)OCO5)cc3s2)cc1`, the “activity change, positive = activation” value was inactive: -3.19%.

With `O=C(Nc1ccc(F)cc1)C1CCN(c2nc3ccccc3n3cccc23)CC1`, the “activity change, positive = activation” value is inactive: -8.46%.

For `COc1ccc(NC(=O)c2cc3c(=O)n(C)c4ccccc4c3s2)cc1Cl`, the “activity change, positive = activation” value is inactive: -16.6%.

For the molecule `CCOC(=O)C1CCCN(C(=O)c2c(C)nn(-c3ccc(F)cc3)c2-n2cccc2)C1` (stereo not given), the “activity change, positive = activation” value is inactive: -10.2%.

With `CCS(=O)(=O)N1CCc2cc(C(=O)Nc3cccc(C)c3C)ccc21`, the “activity change, positive = activation” value is inactive: 28.4%.

Regarding `CCCc1ccc(OC(=O)CSc2nnc(-c3cccs3)o2)cc1`, the “activity change, positive = activation” value is inactive: -1.28%.

Turning to `CSc1ccc(CCNC(=O)CCn2c(=O)c3cccn3c3cccnc32)cc1`, the “activity change, positive = activation” value is inactive: -5.98%.

For `Cc1cccc(NC(=O)CSc2nnc(N)s2)c1`, the “activity change, positive = activation” value is inactive: -2.74%.

For `O=C(NC1(C(F)(F)F)NC(=O)N(CCc2ccccc2)C1=O)c1ccccc1Cl` (stereo not given), the “activity change, positive = activation” value is inactive: -15.3%.

As to `Cc1nc(-n2nc(C)c(Cc3ccccc3Cl)c2C)sc1C(=O)N1CCC(C)CC1`, the “activity change, positive = activation” value was inactive: -3.52%.

For the molecule `O=C(CCn1cccn1)NCc1ccc(Cl)cc1`, the “activity change, positive = activation” value was inactive: -5.32%.

As for `CCOC(=O)C(CC)Sc1ncnc2sc3c(c12)CCCC3` (stereo not given), the “activity change, positive = activation” value is inactive: -28.8%.

Regarding `O=C(Nc1ccc(OCc2cc(=O)n3c4c(sc3n2)CCCC4)cc1)c1ccc(F)cc1`, the “activity change, positive = activation” value is inactive: -6.3%.

With `COC(=O)Cc1c(C)c2ccc3c(c2oc1=O)CN(Cc1ccc(C)cc1)CO3`, the “activity change, positive = activation” value is inactive: -8.22%.

Turning to `Cc1ccccc1-c1noc(CSc2nc(-c3ccc(F)cc3)cc(=O)[nH]2)n1`, the “activity change, positive = activation” value is inactive: -13.4%.

As for `COc1ccc(-n2nnnc2SCC(=O)NCCc2ccccc2)cc1`, the “activity change, positive = activation” value is inactive: -8.3%.

`CCc1ccccc1NS(=O)(=O)c1ccc2[nH]cc(C(=O)NC3CCCC3)c(=O)c2c1`: the “activity change, positive = activation” value was inactive: -36.4%.

Turning to `NC(=O)C1CCN(c2ncnc3c2cnn3-c2cccc(Cl)c2)CC1`, the “activity change, positive = activation” value is inactive: -59.1%.

In the case of `CCOc1ccc(CCNC(=O)CCn2c(=O)c3cccn3c3ccc(F)cc32)cc1`, the “activity change, positive = activation” value was inactive: -19.1%.

On to `CC(C)COc1ccc(C(=O)Nc2onc3c2CCCC3)cc1`, for which the “activity change, positive = activation” value was inactive: -16.6%.

For the molecule `Cc1ccc(NC(=O)Cn2nc(C(F)(F)F)c3c2CCC3)cc1C`, the “activity change, positive = activation” value is inactive: -16.4%.

Regarding `Cc1cccc(CNC(=O)CCCN2C(=O)c3cccnc3Oc3ccccc32)c1`, the “activity change, positive = activation” value is inactive: -5.85%.

For the molecule `COc1ccc(-c2noc(-c3ccc(NCc4ccco4)c([N+](=O)[O-])c3)n2)cc1OC`, the “activity change, positive = activation” value is inactive: 0.0894%.

As for `CCc1ccc(N2CC(c3nc4ccccc4n3Cc3ccccc3C)CC2=O)cc1` (stereo not given), the “activity change, positive = activation” value was inactive: -39%.

For the molecule `CCC1Oc2ccc(C)cc2N(CC(=O)NCCc2ccccc2)C1=O` (stereo not given), the “activity change, positive = activation” value was inactive: -8.71%.

For `CCOC(=O)c1cnc2ccc(OC(F)(F)F)cc2c1Nc1ccccc1C(=O)O`, the “activity change, positive = activation” value is inactive: -6.09%.

As for `Cc1ccc(NC(=O)CCCN2C(=O)COc3ccc(C)cc32)c(Cl)c1`, the “activity change, positive = activation” value was inactive: -10.6%.

Regarding `COc1cccc(/C=C/c2nc(C#N)c(N3CCCCCC3)o2)c1`, the “activity change, positive = activation” value was inactive: -15%.

Regarding `CCOC(=O)c1cnn2c(C(F)(F)F)cc(-c3ccc(Br)cc3)nc12`, the “activity change, positive = activation” value is inactive: 3.1%.

`O=C(Nc1cccc(C(F)(F)F)c1)C1CCN(S(=O)(=O)c2cccc3nsnc23)CC1`: the “activity change, positive = activation” value was inactive: -35.1%.

In the case of `COc1ccc(-c2cnc(C)o2)cc1S(=O)(=O)Nc1cccc(C(F)(F)F)c1`, the “activity change, positive = activation” value was inactive: -25.6%.

Regarding `COc1ccc(C(=O)CC2(O)C(=O)N(CCc3ccccc3)c3ccc(Br)cc32)cc1OC` (stereo not given), the “activity change, positive = activation” value is inactive: -30.4%.

The values above are taken from PubChem BioAssay AID1508624 (National Center for Advancing Translational Sciences (NCATS), 2021).
